# Results as given in the supplement of paper PMC8728848.
# This is one part of the list.
# B1: AMA (Arum maculatun) (protein)
# chain: MAKLLLLLLLPAIVGLAVPRSAAAVGSNYMLSGETLNTDGRLTNGELTLIMQVDCNLVLYHGGWQSNTANNGRDCKLTLTDFGELVIKSGTGSTVWSSGSKQSMKGNYAAVVHPEGRLVIYGPSVFKINPSGAGLNGLPLRNIPLTNNMLFSGQVLYGDGTLSARNHKLVMQGDCNMVLYGGKYGWQSNTHGNGKYCFAMLTHKGELVIRDDDFKSVWSSKSSSKQGDYVFILQDDSLAIIYGPAVFSTGSKKMISMVTN
# Key:
# Assay in all cases: glycan array binding signal (z-score within array); higher = stronger binding
# Conditions in all cases: glycan notation: IUPAC condensed, linker removed
# [1] = biological target: Man(a1-2)Man(a1-6)[Man(a1-3)]Man(a1-6)[Man(a1-2)Man(a1-2)Man(a1-3)]Man(b1-4)GlcNAc(b1-4)GlcNAc
# Procedure, shortened: (§1)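 Glycan array data came from 3228 arrays in the Consortium for Functional Glycomics database, and only arrays with an available protein sequence were kept. Glycan names were put into IUPAC-condensed notation, and columns mapping to the same glycan were averaged. The binding signal is a within-array Z-score, averaged across arrays of one protein sequence run at different concentrations or buffers and across linkers. A negative Z-score can be read as non-binding.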
# Man(a1-3)[Man(a1-6)]Man = biological target: Man(a1-3)[Man(a1-6)]Man
# Procedure, shortened: as §1
# [2] = biological target: Man(a1-3)[Man(a1-6)]Man(a1-6)[Man(a1-2)Man(a1-3)]Man(b1-4)GlcNAc(b1-4)GlcNAc
# Procedure, shortened: as §1
# [3] = biological target: Man(a1-3)[Man(a1-6)]Man(a1-6)[Man(a1-3)]Man
# Procedure, shortened: as §1
# [4] = biological target: Man(a1-3)[Man(a1-6)]Man(a1-6)[Man(a1-3)]Man(b1-4)GlcNAc(b1-4)GlcNAc
# Procedure, shortened: as §1
# [5] = biological target: Man(a1-3)[Man(a1-6)]Man(b1-4)GlcNAc(b1-4)GlcNAc
# Procedure, shortened: as §1
# [6] = biological target: Man(a1-3)[Man(a1-6)]Man(b1-4)GlcNAc(b1-4)[Fuc(a1-6)]GlcNAc
# Procedure, shortened: as §1
# Man(a1-6)Man = biological target: Man(a1-6)Man
# Procedure, shortened: as §1
# Man(b1-4)GlcNAc = biological target: Man(b1-4)GlcNAc
# Procedure, shortened: as §1
# MurNAc(b1-4)GlcNAc = biological target: MurNAc(b1-4)GlcNAc
# Procedure, shortened: as §1
# Neu5Ac(a2-3)Gal = biological target: Neu5Ac(a2-3)Gal
# Procedure, shortened: as §1
# [7] = biological target: Neu5Ac(a2-3)Gal(b1-3)GalNAc
# Procedure, shortened: as §1
# [8] = biological target: Neu5Ac(a2-3)Gal(b1-3)GalNAc(b1-3)Gal(a1-4)Gal(b1-4)Glc
# Procedure, shortened: as §1
# [9] = biological target: Neu5Ac(a2-3)Gal(b1-3)GalNAc(b1-3)Gal(b1-4)GlcNAc
# Procedure, shortened: as §1
# [10] = biological target: Neu5Ac(a2-3)Gal(b1-3)GalNAc(b1-4)[Neu5Ac(a2-3)]Gal(b1-4)Glc
# Procedure, shortened: as §1
# [11] = biological target: Neu5Ac(a2-3)Gal(b1-3)GalNAc(b1-4)[Neu5Ac(a2-8)Neu5Ac(a2-3)]Gal(b1-4)Glc
# Procedure, shortened: as §1
# [12] = biological target: Neu5Ac(a2-3)Gal(b1-3)GalNAc6S
# Procedure, shortened: as §1
# [13] = biological target: Neu5Ac(a2-3)Gal(b1-3)GlcNAc
# Procedure, shortened: as §1
# [14] = biological target: Neu5Ac(a2-3)Gal(b1-3)GlcNAc(b1-2)Man
# Procedure, shortened: as §1
# [15] = biological target: Neu5Ac(a2-3)Gal(b1-3)GlcNAc(b1-2)Man(a1-3)[GlcNAc(b1-4)][Neu5Ac(a2-3)Gal(b1-3)GlcNAc(b1-2)Man(a1-6)]Man(b1-4)GlcNAc(b1-4)GlcNAc
# Procedure, shortened: as §1
# [16] = biological target: Neu5Ac(a2-3)Gal(b1-3)GlcNAc(b1-2)Man(a1-3)[Neu5Ac(a2-3)Gal(b1-3)GlcNAc(b1-2)Man(a1-6)]Man(b1-4)GlcNAc(b1-4)GlcNAc
# Procedure, shortened: as §1
# [17] = biological target: Neu5Ac(a2-3)Gal(b1-3)GlcNAc(b1-3)Gal(b1-3)GlcNAc
# Procedure, shortened: as §1
# [18] = biological target: Neu5Ac(a2-3)Gal(b1-3)GlcNAc(b1-3)Gal(b1-4)GlcNAc
# Procedure, shortened: as §1
# [19] = biological target: Neu5Ac(a2-3)Gal(b1-3)GlcNAc(b1-3)GalNAc
# Procedure, shortened: as §1
# [20] = biological target: Neu5Ac(a2-3)Gal(b1-3)GlcNAc(b1-4)Gal(b1-4)Glc
# Procedure, shortened: as §1
# [21] = biological target: Neu5Ac(a2-3)Gal(b1-3)GlcNAc(b1-6)GalNAc
# Procedure, shortened: as §1
# [22] = biological target: Neu5Ac(a2-3)Gal(b1-3)GlcNAc6S
# Procedure, shortened: as §1
# [23] = biological target: Neu5Ac(a2-3)Gal(b1-3)[Fuc(a1-4)]GlcNAc
# Procedure, shortened: as §1
# [24] = biological target: Neu5Ac(a2-3)Gal(b1-3)[Fuc(a1-4)]GlcNAc(b1-3)Gal(b1-3)[Fuc(a1-4)]GlcNAc
# Procedure, shortened: as §1
# [25] = biological target: Neu5Ac(a2-3)Gal(b1-3)[Fuc(a1-4)]GlcNAc(b1-3)Gal(b1-4)[Fuc(a1-3)]GlcNAc
# Procedure, shortened: as §1
# [26] = biological target: Neu5Ac(a2-3)Gal(b1-3)[GlcNAc(b1-6)]GalNAc
# Procedure, shortened: as §1
# [27] = biological target: Neu5Ac(a2-3)Gal(b1-3)[Neu5Ac(a2-3)Gal(b1-4)]GlcNAc
# Procedure, shortened: as §1
# [28] = biological target: Neu5Ac(a2-3)Gal(b1-3)[Neu5Ac(a2-6)]GalNAc
# Procedure, shortened: as §1
# [29] = biological target: Neu5Ac(a2-3)Gal(b1-3)[Neu5Ac(a2-6)]GlcNAc(b1-3)[Fuc(a1-3)[Gal(b1-4)]GlcNAc(b1-6)]Gal(b1-4)Glc
# Procedure, shortened: as §1
# [30] = biological target: Neu5Ac(a2-3)Gal(b1-3)]Neu5Ac(a2-3)Gal(b1-4)]GlcNAc
# Procedure, shortened: as §1
# Neu5Ac(a2-3)Gal(b1-4)Glc = biological target: Neu5Ac(a2-3)Gal(b1-4)Glc
# Procedure, shortened: as §1
# [31] = biological target: Neu5Ac(a2-3)Gal(b1-4)GlcNAc
# Procedure, shortened: as §1
binder,measurement,setting,value
B1,glycan array binding signal (z-score),[1],4.91
same,glycan array binding signal (z-score),Man(a1-3)[Man(a1-6)]Man,-0.207
same,glycan array binding signal (z-score),[2],8.56
same,glycan array binding signal (z-score),[3],-0.2
same,glycan array binding signal (z-score),[4],4.09
same,glycan array binding signal (z-score),[5],3.64
same,glycan array binding signal (z-score),[6],2.59
same,glycan array binding signal (z-score),Man(a1-6)Man,-0.197
same,glycan array binding signal (z-score),Man(b1-4)GlcNAc,-0.219
same,glycan array binding signal (z-score),MurNAc(b1-4)GlcNAc,-0.219
same,glycan array binding signal (z-score),Neu5Ac(a2-3)Gal,-0.213
same,glycan array binding signal (z-score),[7],-0.22
same,glycan array binding signal (z-score),[8],-0.213
same,glycan array binding signal (z-score),[9],-0.236
same,glycan array binding signal (z-score),[10],-0.22
same,glycan array binding signal (z-score),[11],-0.209
same,glycan array binding signal (z-score),[12],-0.212
same,glycan array binding signal (z-score),[13],-0.195
same,glycan array binding signal (z-score),[14],-0.125
same,glycan array binding signal (z-score),[15],-0.21
same,glycan array binding signal (z-score),[16],-0.217
same,glycan array binding signal (z-score),[17],-0.204
same,glycan array binding signal (z-score),[18],-0.217
same,glycan array binding signal (z-score),[19],-0.212
same,glycan array binding signal (z-score),[20],-0.204
same,glycan array binding signal (z-score),[21],-0.213
same,glycan array binding signal (z-score),[22],-0.2
same,glycan array binding signal (z-score),[23],-0.218
same,glycan array binding signal (z-score),[24],-0.207
same,glycan array binding signal (z-score),[25],-0.226
same,glycan array binding signal (z-score),[26],-0.219
same,glycan array binding signal (z-score),[27],0.441
same,glycan array binding signal (z-score),[28],-0.211
same,glycan array binding signal (z-score),[29],-0.218
same,glycan array binding signal (z-score),[30],-0.217
same,glycan array binding signal (z-score),Neu5Ac(a2-3)Gal(b1-4)Glc,-0.196
same,glycan array binding signal (z-score),[31],-0.215
